The list shows a part of the results.

B1: Q9UKT9 (peptide)
chain: FTCEQCGAPFTQKGNLLRHIKL
B2: Q9UKT9 (peptide)
chain: FICEICGAWFTQKGNLLRHIKL
B3: Q9UKT9 (peptide)
chain: FGCEICGHEFTQKGNLLRHIKL
B4: Q9UKT9 (peptide)
chain: FHCDVCGALFTQKGNLLRHIKL
B5: Q9UKT9 (peptide)
chain: FFCEVCGAKFTQKGNLLRHIKL
B6: Q9UKT9 (peptide)
chain: FNCPICGRTFTQKGNLLRHIKL
B7: Q9UKT9 (peptide)
chain: FACEICGAFFTQKGNLLRHIKL
B8: Q9UKT9 (peptide)
chain: FVCPICGAVFTQKGNLLRHIKL
B9: Q9UKT9 (peptide)
chain: FSCPQCGAQFTQKGNLLRHIKL
B10: Q9UKT9 (peptide)
chain: FGCPQCGAVFTQKGNLLRHIKL
B11: Q9UKT9 (peptide)
chain: FECSVCGHTFTQKGNLLRHIKL
B12: Q9UKT9 (peptide)
chain: FACEVCGAWFTQKGNLLRHIKL
B13: Q9UKT9 (peptide)
chain: FGCEICGAPFTQKGNLLRHIKL
B14: Q9UKT9 (peptide)
chain: FTCDQCGADFTQKGNLLRHIKL
B15: Q9UKT9 (peptide)
chain: LHCPICGFLCTQKGNLLRHIKL
B16: Q9UKT9 (peptide)
chain: FDCEVCGAAFTQKGNLLRHIKL
B17: Q9UKT9 (peptide)
chain: FFCEICGRCFTQKGNLLRHIKL
B18: Q9UKT9 (peptide)
chain: FCCNICGAEFTQKGNLLRHIKL
B19: Q9UKT9 (peptide)
chain: FTCPQCGAAFTQKGNLLRHIKL
B20: Q9UKT9 (peptide)
chain: FNCDICGAVFTQKGNLLRHIKL
B21: Q9UKT9 (peptide)
chain: FMCPICGHSFTQKGNLLRHIKL
B22: Q9UKT9 (peptide)
chain: FSCEQCGALFTQKGNLLRHIKL
B23: Q9UKT9 (peptide)
chain: FQCEICGHHFTQKGNLLRHIKL
B24: Q9UKT9 (peptide)
chain: FHCNVCGAWFTQKGNLLRHIKL
B25: Q9UKT9 (peptide)
chain: FMCPICGRDFTQKGNLLRHIKL
B26: Q9UKT9 (peptide)
chain: FVCEICGHEFTQKGNLLRHIKL
B27: Q9UKT9 (peptide)
chain: LRCNQCGFTCTQKGNLLRHIKL
B28: Q9UKT9 (peptide)
chain: FTCNQCGREFTQKGNLLRHIKL
B29: Q9UKT9 (peptide)
chain: FKCPICGRNFTQKGNLLRHIKL
B30: Q9UKT9 (peptide)
chain: FHCPQCGASFTQKGNLLRHIKL
B31: Q9UKT9 (peptide)
chain: FACNQCGALFTQKGNLLRHIKL
B32: Q9UKT9 (peptide)
chain: LMCNQCGFRCTQKGNLLRHIKL
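Further: jurkat cells carrying a lentiviral library of mutant zinc finger degrons fused to EGFP plus mCherry, mCherry+ cells FACS sorted, degron abundance counted by next-generation sequencing.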

The assay addresses no compound (DMSO). The experiment in a line: log2 fold change of degron read counts, EGFP-low vs EGFP+ sorted cells; higher = lower degron-EGFP level without compound (poor expression or instability). Conditions: compound: DMSO control; 18 h.
As to B1, the “log2 fold change of degron read counts” value was -1.47.

Take B2: the “log2 fold change of degron read counts” value was -0.533.

As to B3, the “log2 fold change of degron read counts” value is 0.27.

In the case of B4, the “log2 fold change of degron read counts” value was -0.93.

With B5, the “log2 fold change of degron read counts” value was -1.86.

For the sequence B6, the “log2 fold change of degron read counts” value was -0.244.

Turning to B7, the “log2 fold change of degron read counts” value was -0.563.

For the sequence B8, the “log2 fold change of degron read counts” value was determined as 0.0564.

B9: the “log2 fold change of degron read counts” value was -0.904.

For the sequence B10, the “log2 fold change of degron read counts” value amounted to 0.623.

With B11, the “log2 fold change of degron read counts” value was -1.75.

As for B12, the “log2 fold change of degron read counts” value is -0.0912.

B13: the “log2 fold change of degron read counts” value was -0.536.

As to B14, the “log2 fold change of degron read counts” value is -2.36.

Consider B15, for which the “log2 fold change of degron read counts” value was found to be 1.53.

Turning to B16, the “log2 fold change of degron read counts” value is -2.21.

B17: the “log2 fold change of degron read counts” value was -0.0871.

Turning to B18, the “log2 fold change of degron read counts” value was -1.33.

In the case of B19, the “log2 fold change of degron read counts” value was -0.852.

Take B20: the “log2 fold change of degron read counts” value was -1.65.

As for B21, the “log2 fold change of degron read counts” value worked out at 0.195.

Regarding B22, the “log2 fold change of degron read counts” value is -1.95.

As for B23, the “log2 fold change of degron read counts” value is -2.07.

Take B24: the “log2 fold change of degron read counts” value was 0.611.

Take B25: the “log2 fold change of degron read counts” value is -1.2.

For B26, the “log2 fold change of degron read counts” value was -2.69.

On to B27, for which the “log2 fold change of degron read counts” value is -0.0806.

On to B28, for which the “log2 fold change of degron read counts” value was -1.73.

As to B29, the “log2 fold change of degron read counts” value is -0.291.

Consider B30, for which the “log2 fold change of degron read counts” value is -1.17.

In the case of B31, the “log2 fold change of degron read counts” value is 0.0895.

B32: the “log2 fold change of degron read counts” value was found to be 1.22.

The values above are taken from the supplement of paper PMC12645437, “Orthogonal IMiD-Degron Pairs Induce Selective Protein Degradation in Cells” (ACS Chemical Biology, 2025).
